Laboratory results as given in PubChem BioAssay AID1745845 (National Center for Advancing Translational Sciences (NCATS), 2022).
Hit rate of the full screen: of about 360,000 compounds, about 2,600 (0.72%) were called active. This list was built around the results that the source calls inconclusive (neither active nor inactive); the mix of calls is not that of the screen. Calls come from the whole dose curve; as a rule, active = well fitted inhibition curve with a large enough effect; inconclusive = small, poorly fitted or top-dose-only effect; inactive = no such curve, though single readings can be large or run the other way. Potencies of inconclusive entries are doubtful fits and often do not repeat.
% is set by controls: 0 for no effect and ±100 for the full control effect; potency is the fitted concentration of half-maximal effect; tags give direction and shape of the fitted curve.

Test: Primary qHTS for Inhibitors of ATXN expression; note: nearly all actives have a fitted effect of over 55% in size
Conditions: HEK-293 ATXN2-luciferase reporter, luminescence, 24 h; activity change, negative = inhibition: at 57 µM (top of the series)
Summary of the method: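 ATXN2-luciferase reporter cells (luciferase flanked by upstream and downstream ATXN2 gene portions) were treated 24 h at 37 °C with compounds at up to 57 uM. SteadyGlo luminescence gave expression; GF-AFC fluorescence gave viability.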
With CN(Cc1ccccc1C#N)S(=O)(=O)c1cccs1 the Potency was inconclusive: 0.708 µM [inhibitor, full curve, poor fit]. In the case of O=C1NC(Cc2ccc(O)cc2)c2nc3ccc(Cl)cc3c(=O)n2-c2cc3ccccc3cc21 (stereo not drawn), the Potency is reported as inconclusive: 10 µM [inhibitor, partial curve]. In the case of COc1ccccc1NC(=O)N1CCN(c2cc(-c3ccccc3)nc3ncnn23)CC1, the Potency is reported as inconclusive: 10 µM [inhibitor, partial curve, poor fit]. In the case of CN(Cc1ccccc1)Cc1nc2scc(-c3ccccc3)c2c(=O)[nH]1, the “activity change, negative = inhibition” value is reported as inactive: 3.93%. For CCc1nc(N2CCCCC2C)c2oc3ccccc3c2n1 (stereo not drawn), the Potency was inconclusive: 39.8 µM [inhibitor, partial curve, poor fit]. In the case of COc1ccc(NC(=S)N(CCc2c(C)[nH]c3ccc(C)cc23)Cc2ccco2)cc1, the “activity change, negative = inhibition” value is reported as inactive: -25.1%. With COc1ccc(/C=C/C(=O)c2ccc3c4c(cccc24)CC3)cc1 the Potency was inconclusive: 31.6 µM [inhibitor, single point]. For O=C(Nc1ccc(Cl)c([N+](=O)[O-])c1)C(Sc1ccccc1)c1ccccc1 (stereo not drawn), the Potency was inconclusive: 23.8 µM [inhibitor, single point]. In the case of Cc1c(N=Cc2c(O)n(C)c(=O)c3ccccc23)c(=O)n(-c2ccccc2)n1C, the “activity change, negative = inhibition” value is reported as inactive: -7.04%. With CCOC(=O)c1sc(NC(=O)c2ccc(Br)o2)cc1C the “activity change, negative = inhibition” value was inactive: 105%. In the case of Cc1ccc(-c2csc(NC3OC(=O)c4ccccc43)n2)cc1 (stereo not drawn), the Potency is reported as inconclusive: 39.8 µM [inhibitor, single point]. For CC(C)(C)c1ccc(C(=O)N2CC(=O)Nc3ccc(F)cc3C2c2ccc(F)cc2)cc1 (stereo not drawn), the Potency was inconclusive: 39.8 µM [inhibitor, single point]. In the case of CC1=CCC2C(=O)N(c3cccc(C(=O)NCc4ccccc4)c3)C(=O)C2C1 (stereo not drawn), the “activity change, negative = inhibition” value is reported as inactive: -14.6%. For COc1ccc(NC(=O)CSC2=Nc3ccccc3C3=NC(Cc4ccccc4)C(=O)N23)cc1Cl (stereo not drawn), the “activity change, negative = inhibition” value was inactive: -17.6%. With COc1cc(CNC(=O)c2cc(-c3cc(Cl)ccc3OC)n[nH]2)cc(OC)c1 the Potency was inconclusive: 28.2 µM [inhibitor, partial curve, poor fit]. In the case of COC(=O)C1=C(C)N(Cc2ccccc2)C(=S)N[C@H]1c1ccc(Br)cc1, the Potency is reported as inconclusive: 28.2 µM [inhibitor, single point]. In the case of CCc1nc2cc(Cl)c(Cl)cc2[nH]1, the “activity change, negative = inhibition” value is reported as inactive: -11.6%. In the case of Cn1c2c(c(=O)n(C)c1=O)C1(C(=O)Nc3ccccc31)C(C#N)=C(N)O2 (stereo not drawn), the “activity change, negative = inhibition” value is reported as inactive: 10.5%. With C=CCOc1cccn2c(N(C)C(=O)c3ccc(OC)cc3)c(CC)nc12 the “activity change, negative = inhibition” value was inactive: 7.89%. With O=C(c1ccc2c(=O)n(Cc3ccco3)c(=S)[nH]c2c1)N1CCN(c2ccccc2)CC1 the “activity change, negative = inhibition” value was inactive: -9.06%. With O=C(Nc1nc2cc3c(cc2s1)OCO3)C1=COCCO1 the Potency was inconclusive: 9.47 µM [inhibitor, partial curve, poor fit]. For CCN1CCCC1CNS(=O)(=O)c1c(C)cc(C)cc1C (stereo not drawn), the Potency was inconclusive: 42.3 µM [inhibitor, partial curve, poor fit]. For CC1CCCN(C(=O)CCCC(=O)N2CCCC(C)C2)C1 (stereo not drawn), the Potency was inconclusive: 3.16 µM [inhibitor, partial curve, poor fit]. In the case of COc1ccccc1CCNC(=O)CCc1c(C)c2cc3c(C)coc3cc2oc1=O, the “activity change, negative = inhibition” value is reported as inactive: -26.2%. With C=CCN1c2ccccc2[C@]23C[C@@H](C(=O)OC)N(C(=O)OCC)C2=NC(C(=O)OC)=C(C(=O)OC)[C@H]13 the “activity change, negative = inhibition” value was inactive: 1.89%. For CCc1cc2c(=O)c(-c3cnn(-c4ccccc4)c3)coc2c(CN2CCOCC2)c1O, the Potency was inconclusive: 8.91 µM [inhibitor, partial curve, poor fit]. For CC(C)Nc1nc(NCCOc2ccccc2)c2sccc2n1, the Potency was inconclusive: 35.5 µM [inhibitor, single point]. For CC(C)(C)C1CCC(C(=O)OCC(=O)Nc2ccc3[nH]c(=O)[nH]c3c2)CC1 (stereo not drawn), the Potency was inconclusive: 39.8 µM [inhibitor, single point]. For CC1=N/C(=C/c2ccc([N+](=O)[O-])cc2)C(=O)N1c1ccc(Cl)cc1Cl, the “activity change, negative = inhibition” value was inactive: -16.3%. In the case of Fc1ccc(Nc2nc(Oc3ccc4c(c3)OCO4)nc(N3CCOCC3)n2)c(F)c1, the Potency is reported as inconclusive: 12.6 µM [inhibitor, partial curve, poor fit]. With Cc1cc(C)n(CC(=O)O)c(=O)c1[N+](=O)[O-] the “activity change, negative = inhibition” value was inactive: 5.28%. In the case of O=C(CN1CCN(C(=O)c2ccco2)CC1)Nc1cc(Cl)ccc1Cl, the Potency is reported as inconclusive: 28.2 µM [inhibitor, partial curve, poor fit]. For COc1cccc(CNC(=O)[C@@H](C)N2C(=O)N3CCc4c([nH]c5ccc(OC)cc45)C3(C)C2=O)c1 (stereo partly drawn), the “activity change, negative = inhibition” value was inactive: -2.07%. With Cc1c(C#N)c(N)nc2c3c(sc12)NC(=O)CC3c1ccc(Cl)cc1 (stereo not drawn) the Potency was inconclusive: 39.8 µM [inhibitor, single point]. In the case of O=C(CCc1nc2cccnc2n1Cc1ccccc1)NCc1cccc(Cl)c1, the “activity change, negative = inhibition” value is reported as inactive: 2.91%. For CC(C)c1ccc(CC(=O)N2CCC2(C)C(=O)Nc2ccccc2)cc1 (stereo not drawn), the Potency was inconclusive: 20 µM [inhibitor, partial curve, poor fit]. With O=C(Nc1cccc(Cl)c1)c1ccc2nc(Cc3ccccc3)oc2c1 the Potency was inconclusive: 0.708 µM [inhibitor, full curve, poor fit]. For CCCCCCC(=O)N1C/C=C\C(c2ccc(OC)cc2)N(Cc2ccc(F)cc2)C(=O)[C@H]1Cc1ccccc1 (stereo partly drawn), the “activity change, negative = inhibition” value was inactive: -25%. With COc1ccc(C#Cc2ccc3c(c2)O[C@H](CN(C)C(C)=O)[C@H](C)CN([C@@H](C)CO)S3(=O)=O)cc1 the Potency was inconclusive: 31.6 µM [inhibitor, partial curve, poor fit]. In the case of FC(F)(F)c1cnc(NNC(=S)Nc2ccccc2Cl)c(Cl)c1, the Potency is reported as active: 5.97 µM. For CC(=O)Nc1cccc(-c2ccnc3c2CC(C)(C(=O)Nc2ccc(Cl)c(C(F)(F)F)c2)O3)c1 (stereo not drawn), the Potency was inconclusive: 28.2 µM [inhibitor, single point]. For CC(=O)Nc1cc(-c2ccc(C(=O)NC3CC3)cc2)cn2c(-c3cccc(C(C)=O)c3)cnc12, the Potency was inconclusive: 39.8 µM [inhibitor, single point]. In the case of CCOC(=O)C1CCCN(C(=O)c2cccc(S(=O)(=O)N(Cc3ccccc3)c3ccccc3OC)c2)C1 (stereo not drawn), the “activity change, negative = inhibition” value is reported as inactive: -6.97%.
